Experimental data reported in PMC4336329 (PLoS ONE, 2015).
In all, about 310,000 compounds went through this assay and about 2,200 (0.71%) showed an effect of 50% or more. The effect is printed as a negative number. The list shows a part of the results.

molecular target: human ether-à-go-go-related gene (hERG) potassium channel (human, UniProt Q12809); experiment: primary screen, population patch clamp on CHO cells stably expressing hERG
Sequence (Q12809 whole entry, looked up): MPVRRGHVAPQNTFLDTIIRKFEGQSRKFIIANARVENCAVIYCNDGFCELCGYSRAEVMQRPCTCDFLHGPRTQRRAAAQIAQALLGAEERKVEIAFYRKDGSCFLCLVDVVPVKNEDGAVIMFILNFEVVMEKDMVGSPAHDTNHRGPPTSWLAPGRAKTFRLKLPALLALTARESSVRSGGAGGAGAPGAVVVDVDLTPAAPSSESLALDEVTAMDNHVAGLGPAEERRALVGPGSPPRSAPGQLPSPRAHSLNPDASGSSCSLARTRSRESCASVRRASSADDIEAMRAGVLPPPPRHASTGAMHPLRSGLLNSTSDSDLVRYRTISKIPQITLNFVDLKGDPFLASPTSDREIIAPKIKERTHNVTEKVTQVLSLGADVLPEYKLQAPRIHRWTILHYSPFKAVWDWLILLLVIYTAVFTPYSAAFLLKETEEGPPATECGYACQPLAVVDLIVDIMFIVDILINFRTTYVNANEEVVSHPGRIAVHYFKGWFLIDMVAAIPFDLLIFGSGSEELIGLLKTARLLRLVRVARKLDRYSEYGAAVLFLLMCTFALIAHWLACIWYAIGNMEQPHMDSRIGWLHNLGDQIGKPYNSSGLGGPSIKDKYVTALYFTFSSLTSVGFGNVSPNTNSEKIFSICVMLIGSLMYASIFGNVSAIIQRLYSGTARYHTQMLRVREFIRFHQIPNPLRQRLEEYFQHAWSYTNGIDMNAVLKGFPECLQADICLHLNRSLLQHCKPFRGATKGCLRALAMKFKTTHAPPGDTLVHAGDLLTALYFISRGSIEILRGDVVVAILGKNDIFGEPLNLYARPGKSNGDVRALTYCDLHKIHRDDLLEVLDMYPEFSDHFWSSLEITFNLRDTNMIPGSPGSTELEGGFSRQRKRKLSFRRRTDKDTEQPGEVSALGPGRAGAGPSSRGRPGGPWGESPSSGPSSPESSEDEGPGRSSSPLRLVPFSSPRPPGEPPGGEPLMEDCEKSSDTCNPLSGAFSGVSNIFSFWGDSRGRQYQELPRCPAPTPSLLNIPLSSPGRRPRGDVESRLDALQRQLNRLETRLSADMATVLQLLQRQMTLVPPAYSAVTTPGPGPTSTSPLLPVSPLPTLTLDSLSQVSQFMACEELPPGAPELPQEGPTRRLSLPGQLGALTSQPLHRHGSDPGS

Row | Compound | hERG current change (%, negative = inhibition) at 1uM [%]
1 | COc1cccc(CNC(=O)Cn2nc(-c3ccc(Cl)cc3)ccc2=O)c1 | -7.66
2 | Cc1cc(C(=O)COC(=O)CC2Sc3ccccc3NC2=O)c(C)n1-c1ccccc1 (stereo not shown) | 17.8
3 | O=C/C(=C\Nc1ccc(S(=O)(=O)CCO)cc1)c1nc2cc(Cl)ccc2o1 | 2.58
4 | Nc1cc(C(F)(F)F)cc([N+](=O)[O-])c1N | 6.48
5 | COC(=O)c1ccc(Cn2nnc3c(=O)[nH]c(C4CCN(S(=O)(=O)c5ccc(F)cc5)CC4)nc32)cc1 | 8.63
6 | Cc1ccc(-n2nc3ccc(N)cc3n2)cc1Cl | 14
7 | Cc1ccc(NC2=C(NCCO)C(=O)c3ccccc3C2=O)cc1 | 3.27
8 | O=C(C1CCC1)N1CCN(c2ccccc2)CC1 | 14.2
9 | CC(=O)c1ccc(N(C(=O)CS(=O)CC(=O)Nc2ccc(F)cc2)C(C(=O)NC2CCCCC2)c2cccs2)cc1 (stereo not shown) | 15.3
10 | CSc1ccc(/C=C/C(=O)OCC(=O)NCC2CCCO2)cc1 (stereo not shown) | 12.2
11 | CC1CC(C)CN(CCCNC(=O)C2CCN(c3ncnc4c3sc3cccc(F)c34)CC2)C1 (stereo not shown) | -14.9
12 | NS(=O)(=O)c1ccc(NC(=O)COC(=O)CCc2c[nH]c3ccccc23)cc1 | 18.5
13 | CCCOC(=O)c1ccc(-[n+]2c(-c3ccccc3)cc(-c3ccccc3)cc2-c2ccccc2)cc1.[O-][Cl+3]([O-])([O-])[O-] | -12.4
14 | CCCCCCNC(=O)CCNS(=O)(=O)c1ccc(C)cc1 | 9.15
15 | Cn1c(C=O)c(C#Cc2ccccc2)c2ccccc21 | 8.72
16 | O=C(CN1C(=O)/C(=C/c2cccc(Cl)c2)SC1=S)NC1C=CS(=O)(=O)C1 (stereo not shown) | 12.8
17 | CCC(c1nnc(SCC(=O)Nc2cccc(S(N)(=O)=O)c2)n1-c1ccc(OC)cc1)N(C)C (stereo not shown) | 13.2
18 | O=c1[nH]c2ccccc2c(=O)n1CCCO | 5.33
19 | CC(/C=N/NC(=O)c1cc(-c2ccc3ccccc3c2)n[nH]1)=C\c1ccco1 | 3.36
20 | O=C(c1cc(Cl)ccc1Cl)N1CCN(c2ccccn2)CC1 | -4.02
21 | CC(=O)c1c(C)oc2ccc(N(C(=O)c3ccncc3)S(=O)(=O)c3ccccc3)cc12 | 1.05
22 | CC1=C(C(=O)OCCC#N)C(c2cc3c(cc2Br)OCO3)NC(=O)N1 (stereo not shown) | 12.9

Row | Compound | hERG current change (%, negative = inhibition) at 1uM [%]
23 | Cc1onc(-c2ccccc2)c1C(=O)NNC(=S)NC(=O)/C=C/c1cccs1 | 7.15
24 | CC(C)=N/N=C(\N)SCc1ccccc1 | 0.331
25 | COc1ccc(-c2ccc(SCc3cccnc3)nn2)cc1OC | 20.3
26 | O=C(CSc1ncccn1)N1CCN(Cc2ccccc2)CC1 | 10.6
27 | c1ccc(CN2CCOCCOCCOCCOCC2)cc1 | -6.26
28 | O=C(COc1ccccc1Br)N1CCNC1=O | 1.69
29 | CCCCNC(=O)C1(O)c2cc(Br)ccc2NC(=O)N1c1cccc(OC)c1 (stereo not shown) | 10.9
30 | Cc1cc(C(F)(F)F)c(C#N)c(Sc2ccccc2)n1 | 12.2
31 | OCCCNc1ncnc2scc(-c3ccc(Cl)cc3)c12 | 13
32 | Cc1nc2ccccc2c(=O)n1NC(=O)C1CCCCC1 | 12.5
33 | CCSc1ccc(-c2nn(-c3ccccc3)cc2/C=C(/C#N)C(=O)NCCCOC)cc1 | 4.75
34 | O=C(CCNC(=O)c1ccc(Br)cc1)Nc1nccs1 | 13.9
35 | CCOC(=O)c1ccc(NC(=O)CCc2nc(-c3cccc(C)c3)no2)cc1 | 10.6
36 | CNC(=O)c1nc[nH]c1C(=O)NC | 9.16
37 | CCCN(CCC)CCCNC(=O)CS(=O)Cc1nc(-c2ccc(OC)c(OC)c2)oc1C (stereo not shown) | 2.97
38 | CCOc1ccc(N2CC(C(=O)NCc3ccc(F)cc3)CC2=O)cc1 (stereo not shown) | -3.23
39 | CCC1CCCCN1CCCNC(=O)c1ccc2c(c1)NC(=O)CS2 (stereo not shown) | 21.5
40 | COc1cc(/C=C2/C(=O)N(c3ccc([N+](=O)[O-])cc3)N=C2N2CCOCC2)ccc1O | -6.82
41 | O=C(O)C1CCN(C(=O)CSc2nc3ccccc3c(=O)n2Cc2ccccc2)CC1 | 1.3
42 | Cn1nc(C(=O)N2CCOCC2)c2ccccc2c1=O | 10.5
43 | CCc1nnc(NC(=O)CN2C(=O)c3ccccc3C2=O)s1 | 7.94
44 | CCOC(=O)N1CCN(C(=O)c2ccc3c(c2)sc2nc(-c4ccc(OC)cc4)cn23)CC1 | 3.2

Row | Compound | hERG current change (%, negative = inhibition) at 1uM [%]
45 | COc1ccc(C2CC(=O)C3=C(C2)Nc2ccccc2NC3c2coc3ccccc3c2=O)cc1OC (stereo not shown) | 12.6
46 | C=CCOc1ccc(-c2n[nH]c(=S)o2)cc1 | 13.5
47 | COc1ccc(NS(=O)(=O)c2cccc3cccnc23)cc1OC | 21.4
48 | O=C(Nc1ccc2c(c1)OCO2)N1CCC(CO)(CC2CCCCO2)CC1 (stereo not shown) | 9.73
49 | C=CCN1CCN(C(c2cc(OC)ccc2OC)c2nnnn2CC2CCCO2)CC1.Cl (stereo not shown) | 12.4
50 | C/C(CC(=O)Nc1cccc2c1CCCC2)=N\NC(=O)COc1ccccc1 | 0.297
51 | COc1ccccc1N1CCN(C(=O)C2Cc3ccccc3CN2C(=O)c2ccco2)CC1 (stereo not shown) | -11.8
52 | Cc1cccc(C)c1NC(=O)CN(C)C(=O)C1=COCCO1 | 19.3
53 | O=C(C1CCN(c2nnc(N3CCCC3=O)s2)CC1)N1CCN(c2cccc(C(F)(F)F)c2)CC1 | 4.09
54 | Cc1ccc(S(=O)(=O)c2nc(Nc3ccccc3N3CCOCC3)sc2Cl)cc1 | 9.73
55 | COc1ccc(CNC(=O)c2ccc(N3CCC4(CC3)CC(c3ccc(Cl)cc3)=NO4)c([N+](=O)[O-])c2)cc1 | 5.68
56 | O=C1Nc2cc(Cl)c(Cl)cc2N(O)N1c1ccc(Cl)cc1 | -1.79
57 | Cc1noc(C)c1-c1nc(CSc2ccc(Cl)cc2)no1 | 2.31
58 | Cc1[nH]c2ccccc2c1/C=N/NC(=O)c1cc(C(C)C)[nH]n1 | 13
59 | Cn1c(-c2cccs2)nc2ccccc21 | 6.26
60 | c1ccc2c(c1)nc1n2CN(Cc2ccc3c(c2)OCO3)CN1 | 15
61 | CS(=O)(=O)OCCCCOS(C)(=O)=O | 12.2
62 | CCOC(=O)CSc1cc(=O)n(CC)c2ccccc12 | 8.34
63 | O=c1cc2c(nn1Cc1cccc([N+](=O)[O-])c1)-c1ccccc1CC2 | 18.4
64 | CC(C)(C)C(=O)CSc1nnc(Nc2ccccc2)s1 | 9.63
65 | CC(=O)OCC(=O)[C@H]1CC[C@H]2[C@@H]3CC=C4C[C@@H](O)CC[C@]4(C)[C@H]3CC[C@]12C | 2.11
66 | COCC(=O)N1CCC(Oc2ccc(C(=O)N3CCSCC3)cc2)CC1 | 5.41

Row | Compound | hERG current change (%, negative = inhibition) at 1uM [%]
67 | Nc1nonc1-n1nnc(C(=O)N/N=C/c2cccc(Cl)c2Cl)c1CN1CCCC1 | 14.6
68 | CN(C)c1ccc(NC(=O)c2ccc(COc3cccc(Cl)c3)o2)cc1 | 3.43
69 | CC(C(=O)NC1CCCCCC1)n1cc([N+](=O)[O-])cn1 (stereo not shown) | 12.4
70 | CCOC(=O)C1CCCN(C(=O)c2ccc(-c3ccc([N+](=O)[O-])cc3)o2)C1 (stereo not shown) | -9.58
71 | Cc1nnc(SCC(=O)Nc2cccc(S(=O)(=O)N(C)c3ccccc3)c2)s1 | 5.83
72 | CC1CCN(C(=O)CCNC(=O)Cn2cnc3sc4c(c3c2=O)CCCC4)CC1 | 2.27
73 | O=C(COC(=O)c1ccncc1)Nc1cc(Cl)ccc1Cl | 9.87
74 | CCN(CC(=O)NC(C)C)C(=O)[C@@H](NC(=O)c1ccco1)C(C)C | 14.5
75 | O=C(c1cn(-c2ccccc2)nc1-c1ccc(F)cc1)N1CCCCC1 | 7.04
76 | CN(C)c1ccc(C(=O)Nc2cccc(S(=O)(=O)NC3=NCCCCC3)c2)cc1 | 12.2
77 | Cc1cc(CNC(=O)COC(=O)c2ccc(Cl)c(N)c2)cc(C)c1O | 9.01
78 | O=c1oc2ccccc2c(N2CCOCC2)c1[N+](=O)[O-] | 7.66
79 | O=C(Nc1ccc2c(c1)OCCO2)c1cccnc1Oc1ccccc1 | 13
80 | Cc1nc2ccccc2c(C)c1C(=O)c1ccc(F)cc1.Cl | 11.9
81 | Cc1ccc(S(=O)(=O)NCc2csc(C)n2)c(C)c1 | 2.05
82 | COC(=O)c1[nH]c2c(c1C)C(=O)CC(c1ccc(OC)cc1)C2 (stereo not shown) | 4.78
83 | CN(C)C(=O)Cn1cnc2c(cnn2-c2ccc(F)cc2)c1=O | 6.91
84 | COc1cc(/C=C/C(=O)OCC(=O)NCc2ccco2)ccc1OC(F)F | 12.1
85 | COc1ccc(S(N)(=O)=O)cc1-c1nnc2c3ccccc3c(C)nn12 | 14.6
86 | Cc1cccc(NC(=O)c2cc3cc([N+](=O)[O-])ccc3s2)n1 | 5.94
87 | COc1ccc(NC(=O)CSc2nnc(-c3cccs3)n2C)cc1OC | 10.8
88 | CCOc1ccc(Nc2nc(N(C)c3ccccc3)nc(N)c2[N+](=O)[O-])cc1 | 10.4
